Reference: the supplement of paper PMC8728848
Some of the results follow.

Key:
Experiment in all cases: glycan array binding signal (z-score within array); higher = stronger binding
Conditions in all cases: glycan notation: IUPAC condensed, linker removed
Gal(b1-4)Glc = biological target: Gal(b1-4)Glc
How it was run: (§1)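 The binding signal is a Z-score computed within each array and averaged over linkers. Arrays of the same protein sequence at different concentrations or buffers were also averaged together. Data originate from 3228 arrays in the Consortium for Functional Glycomics database, kept only where the protein sequence was available.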

Gal(b1-4)Glc6S = biological target: Gal(b1-4)Glc6S
How it was run: as §1

Gal(b1-4)GlcNAc = biological target: Gal(b1-4)GlcNAc
How it was run: as §1

[1] = biological target: Gal(b1-4)GlcNAc(a1-6)Gal(b1-4)GlcNAc
How it was run: as §1

Gal(b1-4)GlcNAc(b1-2)Man = biological target: Gal(b1-4)GlcNAc(b1-2)Man
How it was run: as §1

[2] = biological target: Gal(b1-4)GlcNAc(b1-2)Man(a1-3)Man(b1-4)GlcNAc(b1-4)GlcNAc
How it was run: as §1

[3] = biological target: Gal(b1-4)GlcNAc(b1-2)Man(a1-3)[Gal(b1-4)GlcNAc(b1-2)Man(a1-6)]Man(b1-4)GlcNAc(b1-4)GlcNAc
How it was run: as §1

[4] = biological target: Gal(b1-4)GlcNAc(b1-2)Man(a1-3)[Gal(b1-4)GlcNAc(b1-2)Man(a1-6)]Man(b1-4)GlcNAc(b1-4)[Fuc(a1-6)]GlcNAc
How it was run: as §1

[5] = biological target: Gal(b1-4)GlcNAc(b1-2)Man(a1-3)[Gal(b1-4)GlcNAc(b1-2)Man(a1-6)][Gal(b1-4)GlcNAc(b1-4)]Man(b1-4)GlcNAc(b1-4)[Fuc(a1-6)]GlcNAc
How it was run: as §1

[6] = biological target: Gal(b1-4)GlcNAc(b1-2)Man(a1-3)[Gal(b1-4)GlcNAc(b1-2)Man(a1-6)][GlcNAc(b1-4)]Man(b1-4)GlcNAc(b1-4)[Fuc(a1-6)]GlcNAc
How it was run: as §1

[7] = biological target: Gal(b1-4)GlcNAc(b1-2)Man(a1-3)[GlcNAc(b1-2)Man(a1-6)]Man(b1-4)GlcNAc(b1-4)GlcNAc
How it was run: as §1

[8] = biological target: Gal(b1-4)GlcNAc(b1-2)Man(a1-3)[GlcNAc(b1-4)][Gal(b1-4)GlcNAc(b1-2)Man(a1-6)]Man(b1-4)GlcNAc(b1-4)GlcNAc
How it was run: as §1

[9] = biological target: Gal(b1-4)GlcNAc(b1-2)Man(a1-3)[Man(a1-6)]Man(b1-4)GlcNAc(b1-4)GlcNAc
How it was run: as §1

[10] = biological target: Gal(b1-4)GlcNAc(b1-2)Man(a1-6)Man(b1-4)GlcNAc(b1-4)GlcNAc
How it was run: as §1

[11] = biological target: Gal(b1-4)GlcNAc(b1-2)Man(a1-6)[GlcNAc(b1-2)Man(a1-3)]Man(b1-4)GlcNAc(b1-4)GlcNAc
How it was run: as §1

[12] = biological target: Gal(b1-4)GlcNAc(b1-2)Man(a1-6)[Man(a1-3)]Man(b1-4)GlcNAc(b1-4)GlcNAc
How it was run: as §1

[13] = biological target: Gal(b1-4)GlcNAc(b1-2)[Gal(b1-4)GlcNAc(b1-4)]Man(a1-3)[Gal(b1-4)GlcNAc(b1-2)Man(a1-6)]Man(b1-4)GlcNAc(b1-4)GlcNAc
How it was run: as §1

[14] = biological target: Gal(b1-4)GlcNAc(b1-2)[Gal(b1-4)GlcNAc(b1-4)]Man(a1-3)[Gal(b1-4)GlcNAc(b1-2)[Gal(b1-4)GlcNAc(b1-6)]Man(a1-6)]Man(b1-4)GlcNAc(b1-4)GlcNAc
How it was run: as §1

[15] = biological target: Gal(b1-4)GlcNAc(b1-2)[Gal(b1-4)GlcNAc(b1-4)]Man(a1-3)[GlcNAc(b1-4)][Gal(b1-4)GlcNAc(b1-2)Man(a1-6)]Man(b1-4)GlcNAc(b1-4)GlcNAc
How it was run: as §1

[16] = biological target: Gal(b1-4)GlcNAc(b1-2)[Gal(b1-4)GlcNAc(b1-4)]Man(a1-3)[GlcNAc(b1-4)][Gal(b1-4)GlcNAc(b1-2)[Gal(b1-4)GlcNAc(b1-6)]Man(a1-6)]Man(b1-4)GlcNAc(b1-4)GlcNAc
How it was run: as §1

[17] = biological target: Gal(b1-4)GlcNAc(b1-2)[Gal(b1-4)GlcNAc(b1-6)]Man(a1-6)[Gal(b1-4)GlcNAc(b1-2)Man(a1-3)]Man(b1-4)GlcNAc(b1-4)GlcNAc
How it was run: as §1

[18] = biological target: Gal(b1-4)GlcNAc(b1-2)[Gal(b1-4)GlcNAc(b1-6)]Man(a1-6)[Gal(b1-4)GlcNAc(b1-2)Man(a1-3)]Man(b1-4)GlcNAc(b1-4)[Fuc(a1-6)]GlcNAc
How it was run: as §1

[19] = biological target: Gal(b1-4)GlcNAc(b1-2)[Gal(b1-4)GlcNAc(b1-6)]Man(a1-6)[GlcNAc(b1-4)][Gal(b1-4)GlcNAc(b1-2)Man(a1-3)]Man(b1-4)GlcNAc(b1-4)GlcNAc
How it was run: as §1

[20] = biological target: Gal(b1-4)GlcNAc(b1-2)[Gal(b1-4)GlcNAc(b1-6)]Man(a1-6)[GlcNAc(b1-4)][Gal(b1-4)GlcNAc(b1-2)[Gal(b1-4)GlcNAc(b1-4)]Man(a1-3)]Man(b1-4)GlcNAc(b1-4)[Fuc(a1-6)]GlcNAc
How it was run: as §1

[21] = biological target: Gal(b1-4)GlcNAc(b1-3)Gal(b1-3)GalNAc
How it was run: as §1

[22] = biological target: Gal(b1-4)GlcNAc(b1-3)Gal(b1-3)GlcNAc
How it was run: as §1

[23] = biological target: Gal(b1-4)GlcNAc(b1-3)Gal(b1-4)Glc
How it was run: as §1

[24] = biological target: Gal(b1-4)GlcNAc(b1-3)Gal(b1-4)GlcNAc
How it was run: as §1

[25] = biological target: Gal(b1-4)GlcNAc(b1-3)Gal(b1-4)GlcNAc(b1-2)Man(a1-3)[Gal(b1-4)GlcNAc(b1-3)Gal(b1-4)GlcNAc(b1-2)Man(a1-6)]Man(b1-4)GlcNAc(b1-4)GlcNAc
How it was run: as §1

[26] = biological target: Gal(b1-4)GlcNAc(b1-3)Gal(b1-4)GlcNAc(b1-2)Man(a1-3)[Gal(b1-4)GlcNAc(b1-3)Gal(b1-4)GlcNAc(b1-2)Man(a1-6)]Man(b1-4)GlcNAc(b1-4)[Fuc(a1-6)]GlcNAc
How it was run: as §1

[27] = biological target: Gal(b1-4)GlcNAc(b1-3)Gal(b1-4)GlcNAc(b1-2)[Gal(b1-4)GlcNAc(b1-3)Gal(b1-4)GlcNAc(b1-6)]Man(a1-6)[Gal(b1-4)GlcNAc(b1-3)Gal(b1-4)GlcNAc(b1-2)Man(a1-3)]Man(b1-4)GlcNAc(b1-4)GlcNAc
How it was run: as §1

[28] = biological target: Gal(b1-4)GlcNAc(b1-3)Gal(b1-4)GlcNAc(b1-2)[Gal(b1-4)GlcNAc(b1-3)Gal(b1-4)GlcNAc(b1-6)]Man(a1-6)[Gal(b1-4)GlcNAc(b1-3)Gal(b1-4)GlcNAc(b1-2)Man(a1-3)]Man(b1-4)GlcNAc(b1-4)[Fuc(a1-6)]GlcNAc
How it was run: as §1

[29] = biological target: Gal(b1-4)GlcNAc(b1-3)Gal(b1-4)GlcNAc(b1-3)Gal(b1-4)GlcNAc
How it was run: as §1

[30] = biological target: Gal(b1-4)GlcNAc(b1-3)Gal(b1-4)GlcNAc(b1-3)Gal(b1-4)GlcNAc(b1-2)Man(a1-3)[Gal(b1-4)GlcNAc(b1-3)Gal(b1-4)GlcNAc(b1-3)Gal(b1-4)GlcNAc(b1-2)Man(a1-6)]Man(b1-4)GlcNAc(b1-4)GlcNAc
How it was run: as §1

[31] = biological target: Gal(b1-4)GlcNAc(b1-3)Gal(b1-4)GlcNAc(b1-3)Gal(b1-4)GlcNAc(b1-2)Man(a1-3)[Gal(b1-4)GlcNAc(b1-3)Gal(b1-4)GlcNAc(b1-3)Gal(b1-4)GlcNAc(b1-2)Man(a1-6)]Man(b1-4)GlcNAc(b1-4)[Fuc(a1-6)]GlcNAc
How it was run: as §1

[32] = biological target: Gal(b1-4)GlcNAc(b1-3)Gal(b1-4)GlcNAc(b1-3)Gal(b1-4)GlcNAc(b1-2)[Gal(b1-4)GlcNAc(b1-3)Gal(b1-4)GlcNAc(b1-3)Gal(b1-4)GlcNAc(b1-6)]Man(a1-6)[Gal(b1-4)GlcNAc(b1-3)Gal(b1-4)GlcNAc(b1-3)Gal(b1-4)GlcNAc(b1-2)Man(a1-3)]Man(b1-4)GlcNAc(b1-4)[Fuc(a1-6)]GlcNAc
How it was run: as §1

[33] = biological target: Gal(b1-4)GlcNAc(b1-3)Gal(b1-4)GlcNAc(b1-3)Gal(b1-4)GlcNAc(b1-3)Gal(b1-4)GlcNAc(b1-2)Man(a1-3)[Gal(b1-4)GlcNAc(b1-3)Gal(b1-4)GlcNAc(b1-3)Gal(b1-4)GlcNAc(b1-3)Gal(b1-4)GlcNAc(b1-2)Man(a1-6)]Man(b1-4)GlcNAc(b1-4)GlcNAc
How it was run: as §1

B1: diCBM40 CPF071 (Clostridium perfringens) (protein)
chain: MAHHHHHHVGTGSNDDDDKSPDPMLSSLGEYKDINLESSNASNITYDLEKYKNLDEGTIVVRFNSKDSKIQSLLGISNSKTKNGYFNFYVTNSRVGFELRNQKNEGNTQNGTENLVHMYKDVALNDGDNTVALKIEKNKGYKLFLNGKMIKEVKDTNTKFLNNIENLDSAFIGKTNRYGQSNEYNFKGNIGFMNIYNEPLGDDYLLSKTGETKALNGSELGSGSGLSSLGEYKDINLESSNASNITYDLEKYKNLDEGTIVVRFNSKDSKIQSLLGISNSKTKNGYFNFYVTNSRVGFELRNQKNEGNTQNGTENLVHMYKDVALNDGDNTVALKIEKNKGYKLFLNGKMIKEVKDTNTKFLNNIENLDSAFIGKTNRYGQSNEYNFKGNIGFMNIYNEPLGDDYLLSKTGETK
Gal(b1-4)Glc
  glycan array binding signal (z-score): -0.329
Gal(b1-4)Glc6S
  glycan array binding signal (z-score): -0.085
Gal(b1-4)GlcNAc
  glycan array binding signal (z-score): -0.318
[1]
  glycan array binding signal (z-score): -0.304
Gal(b1-4)GlcNAc(b1-2)Man
  glycan array binding signal (z-score): -0.337
[2]
  glycan array binding signal (z-score): -0.331
[3]
  glycan array binding signal (z-score): -0.308
[4]
  glycan array binding signal (z-score): -0.309
[5]
  glycan array binding signal (z-score): -0.322
[6]
  glycan array binding signal (z-score): -0.322
[7]
  glycan array binding signal (z-score): -0.306
[8]
  glycan array binding signal (z-score): -0.28
[9]
  glycan array binding signal (z-score): -0.257
[10]
  glycan array binding signal (z-score): -0.328
[11]
  glycan array binding signal (z-score): -0.319
[12]
  glycan array binding signal (z-score): -0.257
[13]
  glycan array binding signal (z-score): 0.035
[14]
  glycan array binding signal (z-score): -0.314
[15]
  glycan array binding signal (z-score): -0.246
[16]
  glycan array binding signal (z-score): -0.234
[17]
  glycan array binding signal (z-score): -0.16
[18]
  glycan array binding signal (z-score): -0.301
[19]
  glycan array binding signal (z-score): -0.246
[20]
  glycan array binding signal (z-score): -0.035
[21]
  glycan array binding signal (z-score): -0.32
[22]
  glycan array binding signal (z-score): -0.132
[23]
  glycan array binding signal (z-score): -0.268
[24]
  glycan array binding signal (z-score): -0.344
[25]
  glycan array binding signal (z-score): -0.322
[26]
  glycan array binding signal (z-score): -0.21
[27]
  glycan array binding signal (z-score): 0.015
[28]
  glycan array binding signal (z-score): -0.122
[29]
  glycan array binding signal (z-score): -0.288
[30]
  glycan array binding signal (z-score): 0.154
[31]
  glycan array binding signal (z-score): -0.245
[32]
  glycan array binding signal (z-score): 0.214
[33]
  glycan array binding signal (z-score): -0.171
